# Measured values: paper PMC10726135
# Some of the results follow. At the low end of the ranking the order means little. Measured with an extract: partners may take part in the binding.
# Target: T1, HNF4alpha8 (COS-7 nuclear extract) (UniProt P41235-5)
# T1 sequence: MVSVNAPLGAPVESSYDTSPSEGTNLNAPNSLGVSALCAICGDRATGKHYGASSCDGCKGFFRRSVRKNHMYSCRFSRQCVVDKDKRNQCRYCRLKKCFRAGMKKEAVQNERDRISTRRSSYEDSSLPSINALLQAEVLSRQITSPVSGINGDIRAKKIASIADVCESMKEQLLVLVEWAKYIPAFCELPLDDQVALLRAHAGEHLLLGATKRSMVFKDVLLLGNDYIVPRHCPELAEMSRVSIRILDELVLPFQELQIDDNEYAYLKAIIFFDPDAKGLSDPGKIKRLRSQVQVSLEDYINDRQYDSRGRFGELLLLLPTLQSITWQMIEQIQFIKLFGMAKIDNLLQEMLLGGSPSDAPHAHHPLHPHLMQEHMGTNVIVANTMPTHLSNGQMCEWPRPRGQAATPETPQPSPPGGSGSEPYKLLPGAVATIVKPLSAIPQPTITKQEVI
# Assay: protein-binding microarray
# Details: COS-7 nuclear extract on double-stranded Agilent 4x180k PBM; binding buffer, salt, pH and temperature not given; high values mean tight binding; double strand, one strand shown; sequences stand for … in …GCCTAGGGAGATTAGAGTATCGGTCGA
row,Sequence,binding signal (log2 normalized intensity)
1,TAGAAAGTGGTTTCAAGGTGACCCCACGGA,4.79
2,AATGCAGGGAGCAGAGTCCCAAGCATCTCT,-1.29
3,AGGACTTTCAACCCTGTGATGACCCCATAC,5.2
4,GCCCCATCTATCTAGCCTGAAGTCTTAACC,0.217
5,GTACTTTGTACATGGGAATAGACATTCCAG,1.99
6,TCCTGATGACTGCAGAGCTTGCTCTCACCA,-1.28
7,CAGCGGGGTCAGAGAAACCTGGCTGCGAGT,-1.29
8,AGCACAGGAAAGGGCTTTGGGGACTGAAGA,-1.24
9,CACTTGTTTGCACAAAGGGTTATGGGAAGT,0.514
10,TTCTGAAGCCCTACAGCCCACAATTGCATG,-0.739
11,GAATGGAAACCCCTGTAAGTCCAAACAAAA,1.63
12,AGGTCCAACTGACATCTGGAAATGTTTGTA,1.41
13,TCCCCTAGGTGATTAGAAGATAGCTTTAAA,-1.32
14,TAAGTAGCCAAGATTACAGCCACATGCTAA,-1.35
15,ATATTCCTGGAATGACAAGAATTGGAACCC,2.03
16,AGAGACTATGTGGTTTTGTAAATATAGGAT,0.393
17,GAGAGAGCAGGTTGAGTATCTACCACATAC,-1.25
18,AGGTCTTGGTTGTTCTGTTTAACAGAGATT,1.09
19,ATAAAAAGATAATGCTGGACATGACTGCAC,-1.4
20,TTCTGGCCAGGCAGAGCAGGTTCTCAGGCC,-1.36
21,CCAGTTGGTTGCTAAGAGACAGCTCCACAG,-1.33
22,ATCAGTCCAGGAGGGTCACAAGTCCCTGTC,1.43
23,GAACTAATTTGTCTTTTCTCCCCCGATAAG,4.51
24,CACGTGAGAGGGTCGTGATCGATTGAGCAA,-0.974

row,Sequence,binding signal (log2 normalized intensity)
1,GACCTGTCAAGCAATGATCTTCATGAACTT,1.75
2,TTTGCTGTGGTAGGCTGTCCTGTGCAATGG,1.1
3,TGGATACCCTTCCCCCCAAGGCTTCCAATC,4.14
4,TTTATCTCCCACATGCTGTCTAGGCCAGAG,-1.09
5,CACCCCCTATCTTGTGTAATAACGAGACCT,1.38
6,GCTGACTAACAAGCTGCCAAACTCTCACTC,-1.24
7,TGCCCTAAGCCACAGACAAATATTTGCTGT,-0.484
8,AAACAAATACCATCATCTCAGGGAGTGCAA,-1.07
9,TTAACACAAGTTATTACCGTGATGTTCGTT,1.14
10,ACCCCACACACCAAAACTCTCTCTCTGTGT,0.344
11,CTGAGCCCTAAGAAATCTCCAAGTCAAACA,-1.41
12,TCTGATTAGGTGGATTCGCCCAGCATAGCA,-1.34
13,CCCCAGCCTGTTTCCCTAGCTTATATCCCC,3.01
14,GAGCCTTCAAAGGAAAGCAGGTGTTCACCT,-0.293
15,CCATGCAGCCAGGGTCAGGAGAAGCAGAAC,-1.34
16,TTAAAAAGCTGCAATGGCTTCACAATTCCT,-1.24
17,ACCCATCATGAGTAGGTTTACTAAAGGAAG,0.304
18,CATTCTACCCCTGTGGTTGACCTTTAGTCT,8.33
19,TAACAGGATTTTTGCTGAAGACAGGCCAGG,-1.27
20,GACAAGCAGTGACCAAGGGTCAGTTTGAAA,3.42
21,ATTACATATTAACCTTTGCCCCAGCTGTCA,6.73
22,CAGCTGAACCATATTCTTTACATTTATTAG,0.675
23,GGTCACATAGCCAGTAAATCATGGATCTGT,-0.373
24,AACATCAAATACCTCCAAGAGGTTTTAGGC,-1.34

row,Sequence,binding signal (log2 normalized intensity)
1,CTTCAAAGGTCGTGTGCTTATCACATCTAT,1.33
2,TCAGTCTGGTTGAGGCAAGCAAAAGCCAAG,-1.29
3,CCCCTGCCACTTTCACAAATCATTACTATC,-0.768
4,GTATCCCAGGGACTTACTCAACTAGCTCCA,-1.4
5,TTGGAGATCTGAACTCAAGCTCTTAAAGAA,-1.26
6,TCAGAAGCTGGGAGACCACTGGTGTAAGCT,-1.31
7,TTGGCTTGGTTCCACATCAGAGAGTTCAAA,1.89
8,GGTCACAGAAAGTGACGTGCAGAGGAGCAA,-0.619
9,GTGGGAGAGCAAGGGTCAAGGGTCATTTGT,7.65
10,CCTAAGGGCACCCTTCCTGCTTCCAGGCTT,-1.25
11,GAGGAACTCCAGAACCAAAGTCCTAGAGTC,-1.26
12,TTACCTTGACCAAAGTACAGTAATTTCACT,1.83
13,GGGCAGGGACTTTGCCCTTTTTAATGTTTC,5.8
14,CCTGAAGCCTTCCTTAATCCTTCAGTATGC,0.75
15,CTTAAATAATGCATACGCTAGCTTTCTGGT,-0.943
16,GCCATTTCTGAGCAAATATTTGGGGTATGT,1.24
17,CTCATGAGGGGCCTGTCAGGCCCAGAAACA,-1.26
18,ACCTCCTGGGCCCAAGTGCTCCTCCCCATC,3.58
19,ATAAGGGTGGCCATCCATCCTGGCGACAGC,-1.29
20,AAGCTGATAAGCCAAGAATGTACTCTCCCC,2.71
21,CACTGATAAAACTGGAATAAAGCAGTCCCT,-1.34
22,CCTTTTATTCAAACAGAGGACAGTTGTGTT,1.73
23,GAGGGAGCCAGGTTATGCAGAGCTTAGTTT,-1.27
24,TAAGTAAACTGTTCAAGACTTTCAGCCAAC,-1.33

row,Sequence,binding signal (log2 normalized intensity)
1,GTCCAGAGTAGGCTTGCAAGACTGCATTCC,-1.2
2,CTTCCAGTCCACAGTCCAGTGACTATCTGC,1.02
3,TATGGAGAGGAAAGATGGGGATATAATCAT,-1.22
4,CTTTGTTTGGAAAAGATTAAGTTATCCATG,0.3
5,AGCAAGACTGCAAAATAGACAAACAGCAAT,-1.23
6,TGTCTTCTGACCTTTGGCAATATCTCCCAG,3.96
7,ATGGTTTGACCCTGCGATAAGTAGATACCA,1.42
8,GGAAGGGCTGGAGACGCAGGAGATGAAAAA,-1.24
9,GACATAGTTTTTGCCCTTAAGCAGCATGTA,1.19
10,GCCCCAGTCCCCCGGACCAGGCCGGGTCAC,4.3
11,ATCTCTTTGCAATGTAAACATCAAGGAAGA,-0.986
12,CCTAAATCTAAGCTGGACTTTGAACTTCAT,9.68
13,CCCCGCCCGCAGCCCAGTCTTGGCCCCACC,6.38
14,AAATAGATAAGTCCCTAAGAGGAATAGTCA,-1.35
15,TTCTTATCTCACACAGTACTTTGTACATGG,2.48
16,GAGGCTTTGAGTCATTGAGGCTTTGCCTTA,-0.699
17,TCTTTACACCATTGCAAGGATTCCAAATTT,0.0367
18,CAACCAAGGTTGCAGAGTGTCCCACTTCAG,-1.15
19,CTAGGATTCTTGCATGATCGATCACACAGA,0.0349
20,AGAGCATCAGCAATGAACAAAGGTCGGTGG,3.98
21,CAATCTCGAGATCATTTACATGTGTAACAA,0.79
